Source: PubChem BioAssay AID360 (National Center for Advancing Translational Sciences (NCATS), 2006)
About 550 (1.1%) of roughly 48,000 compounds were called active. About 4% were inconclusive and are not listed. No stated cut-off is given here; in the data, active means potency below about 15 µM; inconclusive means mostly about 16 µM to 33 µM; inactive means weaker than that. The list shows a part of the results.

Each compound was assayed against Lysosomal acid glucosylceramidase (Homo sapiens) (UniProt P04062) (assay: Glucocerebrosidase). Details: purified enzyme, resorufin glucoside fluorescence (screen aimed at inhibitors), 20 min.
Sequence of UniProt P04062 (P04062 whole entry, looked up): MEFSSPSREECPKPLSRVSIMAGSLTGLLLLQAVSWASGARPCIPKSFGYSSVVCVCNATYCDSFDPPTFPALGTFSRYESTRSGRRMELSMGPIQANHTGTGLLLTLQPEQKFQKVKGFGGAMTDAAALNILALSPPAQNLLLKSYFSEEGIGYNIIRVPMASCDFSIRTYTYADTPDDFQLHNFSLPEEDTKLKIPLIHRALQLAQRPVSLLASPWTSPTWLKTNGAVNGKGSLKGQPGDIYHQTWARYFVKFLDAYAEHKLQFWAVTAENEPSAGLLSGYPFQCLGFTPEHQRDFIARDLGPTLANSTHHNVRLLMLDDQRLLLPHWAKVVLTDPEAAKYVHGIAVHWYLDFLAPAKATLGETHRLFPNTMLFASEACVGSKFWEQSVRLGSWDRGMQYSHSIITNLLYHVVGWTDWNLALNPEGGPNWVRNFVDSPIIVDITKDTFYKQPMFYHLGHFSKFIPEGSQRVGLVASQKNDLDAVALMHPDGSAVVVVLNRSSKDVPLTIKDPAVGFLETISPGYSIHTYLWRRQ
In short: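 Normal human glucocerebrosidase (0.2 nM final) was assayed with resorufin β-D-glucopyranoside (30 uM final) in 50mM citric acid/KH2PO4, 10mM sodium taurocholate, 0.01% tween-20, pH 5.9. Compounds were titrated; fluorescence (Ex 548, Em 600) read after 20 min at RT.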
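Further: the screen sought inhibitors.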
Potency means the concentration at half of the fitted maximal effect.

Potency, inactive:
N#Cc1c(NC(=O)CSc2ncnc3c2cnn3-c2ccccc2Cl)sc2c1CCCC2 > 76.9 µM
CCCCN(CC)C(=O)Cc1c(C(=O)O)[nH]c2ccc(Cl)cc12 > 76.9 µM
CCn1c(COc2ccc(OC)cc2)nnc1SCC(=O)Nc1cc(OC)ccc1OC > 76.9 µM
COC(=O)[C@H](C)NC(=O)Nc1cccc(C(F)(F)F)c1 > 76.9 µM
CN1CC(=O)N(CC(=O)Nc2ccc(Cl)c(C(F)(F)F)c2)C1=O > 76.9 µM
CCOC(=O)C1CCCN(CC(=O)/C=C2/N(C)c3ccccc3C2(C)C)C1 (centres undefined) > 76.9 µM
Cc1cc(C)cc(OCc2nnc(SCC(=O)N3CCN(c4ccccc4)CC3)o2)c1 > 76.9 µM
CCOC(=O)C1=C(Cn2cnc3ccccc32)NC(=O)NC1c1cc(C)ccc1C (centres undefined) > 76.9 µM
CCC(CC)C(=O)NCCc1cc2ccc(OC)cc2[nH]c1=O > 76.9 µM
COc1cccc(N2CCN(C3CCCC(C)C3)CC2)c1 (centres undefined) > 76.9 µM
O=C(CSc1nnc(Cc2ccccc2)o1)NCc1ccco1 > 76.9 µM
Clc1ccc(-c2noc(CN3CCN(c4ccccc4)CC3)n2)cc1 > 76.9 µM
CC(=O)Nc1ccc(S(=O)(=O)N2CCC(NC(=O)c3ccco3)CC2)cc1 > 76.9 µM
Cn1c(SCC(=O)N2CCCc3ccccc32)nnc1-c1ccccc1 > 76.9 µM
COc1cc(NC(=O)c2c(F)c(F)c(F)c(F)c2F)c(OC)cc1Cl > 76.9 µM
CCOC(=O)CC12CN3CN(C1)CC(CC(=O)OCC)(C3)C2=O > 76.9 µM
C=CCSc1nc2c(c(=N)n1CC=C)C1CCCC1S2 (centres undefined) > 76.9 µM
COc1ccc(Br)cc1CNC(=O)CCN1C(=O)COc2ccccc21 > 76.9 µM
CCOC(=O)C1=C(C)N=C2SCCC(=O)N2C1c1ccc(C(=O)OC)cc1 (centres undefined) > 76.9 µM
O=C(NCCc1ccncc1)c1ccccc1F > 76.9 µM
Cn1c(SCc2c(Cl)cccc2Cl)nnc1-c1cccs1
CCOc1ccc(S(=O)(=O)N(CC(N)=O)c2ccc(C)cc2)cc1 > 76.9 µM
COc1cc(C(N)=O)ccc1OCc1ccccc1 > 76.9 µM
Cc1occc1-c1nnc(SCC(=O)N2CCCc3ccccc32)n1Cc1ccco1 > 76.9 µM
Cc1cc(C)cc(NC(=O)CSc2nnc(-c3ccccc3)n2N)c1 > 76.9 µM
O=C(Nc1ccc2c(c1)OCO2)c1cc2ncc(Br)cn2n1 > 76.9 µM
CC12C=CC3(CN(Cc4ccccc4)C(=O)C3C1C(=O)NCc1ccco1)O2 (centres undefined) > 76.9 µM
CC1=Nn2c(nnc2-c2ccccc2)SC1 > 76.9 µM
c1ccc(Cc2nnc3sc(-c4cccs4)nn23)cc1 > 76.9 µM
N#Cc1nc(-c2ccc(OCc3ccccc3)cc2)oc1N1CCC(C(N)=O)CC1 > 76.9 µM
O=C(CCCC(=O)N(CC(=O)NC1CCCCC1)Cc1ccco1)Nc1ccccn1 > 76.9 µM
O=C(NCCc1ccccc1)C1CCCN(C(=O)NC2CCCCC2)C1 (centres undefined) > 76.9 µM
CCOc1ccc(N2C(=O)CC(N3CCOCC3)C2=O)cc1 (centres undefined) > 76.9 µM
COc1ccc(S(=O)(=O)N[C@H](C(=O)O)C(C)C)cc1 > 76.9 µM
Cc1ccc(OCCN2C(=O)OC(C)(C)C2(C)O)cc1 (centres undefined) > 76.9 µM
O=C(CCNS(=O)(=O)c1cccc2nonc12)NC1CCCc2ccccc21 (centres undefined) > 76.9 µM
Cc1oc(-c2ccccc2F)nc1CN1CCC(C(=O)NC2CC2)CC1 > 76.9 µM
CN(C)S(=O)(=O)N1CCc2ccccc21 > 76.9 µM
COCCN1Cc2cccc(C(=O)NCc3ccc4c(c3)OCO4)c2C1=O > 76.9 µM
Cn1c(CCNC(=O)c2cccs2)nnc1SCC(=O)Nc1nc(-c2ccccc2)cs1 > 76.9 µM
CCN(CC)S(=O)(=O)c1ccc(NC(=O)c2ccccn2)cc1 > 76.9 µM
Cc1cccc(-c2nnc(SCC#N)n2-c2ccccc2)c1 > 76.9 µM
C=Cn1c(N2CCOCC2)nc2c1c(=O)[nH]c(=O)n2C > 76.9 µM
COc1ccc(-c2cn3c(C)c(C(=O)Nc4cccc(C)n4)sc3n2)cc1 > 76.9 µM
CCOC(=O)CCNC(=O)Nc1ccc2nc(C)n(Cc3ccc(Cl)cc3)c(=O)c2c1 > 15.4 µM
CN(C)CCNC(=O)COc1cccc(Cl)c1 > 76.9 µM
CCOC(=O)/C(N=O)=C(\O)C1CCN(C(=O)OCC)CC1 > 76.9 µM
Cc1csc(/C(=N\O)c2csc(C)n2)n1 > 76.9 µM
O=C(Nc1nc2n(n1)C(c1ccccc1)CC(c1ccc(Cl)cc1)N2)c1ccco1 (centres undefined) > 76.9 µM
COc1ccccc1C1SCCN1S(=O)(=O)c1cccc(C(F)(F)F)c1 (centres undefined)
N#Cc1c(-c2ccc3c(c2)OCO3)csc1N > 76.9 µM
CCOc1ccc(-n2c(SCC(=O)Nc3ccc(OC)cc3)nc3c(c2=O)SCC3)cc1 > 76.9 µM
COc1ccc(N2C(=O)CC(NCc3ccncc3)C2=O)cc1 (centres undefined) > 76.9 µM
CC(=O)c1cccc(NC(=O)N2CCc3ccccc3C2)c1 > 76.9 µM
Cc1ccnc(NC(=O)C2CCN(S(=O)(=O)c3cccc4nsnc34)CC2)c1 > 76.9 µM
CCc1c(C)c2ccc(OCC(=O)N(C)C)c(C)c2oc1=O > 76.9 µM
O=C(O)CNCC1COc2ccccc2O1 (centres undefined) > 76.9 µM
CCCCN(C)C(=O)Cn1cnc2sc(C)cc2c1=O > 76.9 µM
O=C(CSc1nnc(-c2cccnc2)n1Cc1ccco1)c1ccc2ccccc2c1 > 76.9 µM
